# Test results from the supplement of paper PMC3334620.
# Over roughly 33,000 sequences, “E-score (-0.5 to 0.5)” has its median near -0.036; the highest 2% begin near 0.37. This is one part of the list.
# Biological target: T1, Yer064c (UniProt P40041)
# T1 sequence: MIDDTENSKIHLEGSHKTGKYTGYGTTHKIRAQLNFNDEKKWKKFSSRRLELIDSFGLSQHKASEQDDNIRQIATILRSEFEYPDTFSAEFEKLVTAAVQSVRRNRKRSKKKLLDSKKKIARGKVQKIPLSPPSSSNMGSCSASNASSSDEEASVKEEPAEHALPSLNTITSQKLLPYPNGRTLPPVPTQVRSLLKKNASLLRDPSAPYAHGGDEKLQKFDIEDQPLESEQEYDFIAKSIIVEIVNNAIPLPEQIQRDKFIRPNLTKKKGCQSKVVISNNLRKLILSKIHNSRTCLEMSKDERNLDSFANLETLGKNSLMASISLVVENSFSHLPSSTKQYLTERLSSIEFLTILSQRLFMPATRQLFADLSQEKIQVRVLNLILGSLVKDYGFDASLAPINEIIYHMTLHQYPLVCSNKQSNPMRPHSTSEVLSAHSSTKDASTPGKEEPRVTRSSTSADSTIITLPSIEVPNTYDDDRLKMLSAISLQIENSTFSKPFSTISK
# Assay: PBM E-score (8-mer binding enrichment) (E-score (-0.5 to 0.5)); higher = stronger / more preferred TF binding; most listed sequences are background and not binding sites
# Settings: protein concentration: 200 nM; construct: GST-full length
# How it was run: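 E-scores (a modified Wilcoxon-Mann-Whitney statistic) were assigned by the Universal PBM Analysis Suite to every ungapped eight-base word pooled with its reverse complement. The input came from universal all-10-mer Agilent arrays made double-stranded by primer extension and probed with GST-tagged yeast transcription factors at about 100-200 nM. Fluorescent anti-GST detected bound protein, and masliner normalised the scans.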
row,Sequence,PBM E-score
1,AGCACCTC,-0.262
2,ACCCCAAA,-0.029
3,ATATTTCA,0.109
4,AACAAGGG,-0.0996
5,AAACAAAC,0.0763
6,CGCATCAA,-0.00581
7,AAAATGGT,0.00681
8,CTCCCAAA,0.141
9,AAGATCTG,0.00725
10,ACATCCCT,-0.0971
11,ATGTCCTA,-0.238
12,TGTAGGAA,-0.159
13,AAGAGCTG,-0.0948
14,CACGTCCC,-0.187
15,AGGTTGAA,0.0183
16,AAATACCG,-0.0967
17,AGGCCCAA,-0.247
18,CGCCACAG,-0.142
19,TTATAGAA,0.0296
20,AGCAGTCA,0.412
21,CCGAAATA,0.0359
22,CCTGTTTC,-0.011
23,ATTGAAAG,0.127
24,ACTTTTGG,0.101
25,AAACCGTG,-0.0801

row,Sequence,PBM E-score
1,GCCGCATA,-0.114
2,CCTGCAGC,-0.154
3,CCGTTACA,0.0357
4,TATCCATA,0.11
5,TGCCAACA,-0.152
6,TATCGGGA,-0.096
7,AGTTAGTG,0.0232
8,AAATAGAT,-0.0973
9,ACCGGCGA,-0.129
10,ACTGTGAT,0.165
11,ATAAGCAC,-0.17
12,CATATAGG,-0.0672
13,TACTGACA,-0.0596
14,CTCTATAA,0.0662
15,AAACTATC,-0.068
16,GGCCAATA,-0.279
17,ACATCATC,0.212
18,CTGGGTGC,-0.149
19,CGATTCCG,0.128
20,AGCTTACA,0.082
21,CTCGTAGA,0.0746
22,GGGAGGAA,-0.181
23,TAGCGGCA,-0.267
24,AAACCAGC,-0.106
25,GAAGTGGA,-0.108

row,Sequence,PBM E-score
1,CCGGACAA,-0.00254
2,AACGCGGC,-0.203
3,GACCTCCA,-0.142
4,TCCGGCGA,-0.00403
5,GGAGTATA,0.00857
6,GTGATCGA,0.031
7,CGGTCTTC,-0.183
8,CCCATGAG,0.056
9,GGAAAGCC,-0.131
10,ATGAATGA,0.234
11,TGGTGCAA,-0.315
12,ATTGGCCA,-0.121
13,GTCCCTTA,-0.172
14,AACGACGA,0.15
15,GAGAGCTA,-0.264
16,ACCGTACA,-0.133
17,GAAGATGA,0.159
18,GTACGCCA,-0.159
19,CTGACTAC,0.469
20,ACTAAACG,0.171
21,CACCGCAC,-0.0803
22,GCATGGCA,-0.221
23,ACGGGTAA,0.143
24,CAGCTTGG,-0.0107
25,GCGAAACC,-0.0667

row,Sequence,PBM E-score
1,AAAGGAAC,-0.0949
2,GCGCCCAA,-0.077
3,TCTATAGA,-0.113
4,CTAACCTC,0.0602
5,GAGGCCCC,-0.363
6,AGGCCCAT,-0.0515
7,CCGAGAGC,-0.217
8,ATTAGCAA,0.0422
9,AAAGGTTA,-0.0216
10,ACCGCCGC,-0.0775
11,TATCGTAA,0.00386
12,ACCGCGTC,-0.127
13,GGTGATAC,-0.0115
14,AAAAGCAG,-0.0138
15,ACACGTGC,-0.0356
16,ATAAGGAC,0.00656
17,CAACGGTA,-0.12
18,ACGGGAGC,-0.0353
19,CACAGCAG,0.0201
20,TAGGTCCA,-0.16
21,CCAGATGA,0.187
22,AATACGTA,-0.0805
23,TATCTTAA,0.106
24,ATTATCAC,0.0883
25,GGGGGCGA,-0.27

row,Sequence,PBM E-score
1,CATGAACG,-0.145
2,AGTCTCAC,0.337
3,CTGGCACC,-0.315
4,CCCAAGCC,-0.171
5,AATCGATT,0.26
6,CAGCCACA,0.0182
7,CTGCGTAC,-0.105
8,GTGTGTAA,0.185
9,AGAACCAC,-0.00253
10,ACGATCGT,0.241
11,GTGGGGAA,-0.113
12,CCTCTTGA,0.149
13,GGCCTGTA,-0.386
14,CTGCGCAC,-0.017
15,AAGGCCAT,-0.0293
16,GCCGGTCA,-0.296
17,GGTGTTAA,0.00491
18,CGAGTTAC,0.0312
19,GCGAAACA,0.133
20,ACCATTGC,-0.132
21,AGAGGTTC,-0.2
22,CTCAATTC,0.0515
23,CTCACGAG,0.0978
24,ATCATGCA,0.225
25,CCGAATAC,-0.0874

row,Sequence,PBM E-score
1,AAATAATG,0.0711
2,GGACGAAC,-0.0589
3,GCTAAGCA,-0.0533
4,CACATTGA,0.0834
5,ATATGGTA,0.0907
6,AACGTAGT,0.141
7,CGTTGTAA,-0.0976
8,ACCCTGGC,-0.16
9,GTAAGATA,-0.00585
10,TATCAAAA,0.136
11,ATATACAA,0.0885
12,GATCACAA,0.164
13,ACTACATC,0.195
14,CTCGTCAC,0.107
15,GAAACGGC,-0.195
16,CAACTTTA,0.0743
17,GCCCGAGA,0.0244
18,CCAAGCAC,0.00908
19,AGGACGTA,-0.18
20,GGTCGGAA,-0.23
21,CAGTCAAC,0.36
22,AAAACAGG,-0.126
23,ATGCACAG,-0.0936
24,AGACAACC,-0.0476
25,AATGTCAA,-0.156

row,Sequence,PBM E-score
1,AGCCTGAG,0.0654
2,CAGTTTTC,-0.0706
3,CATTAAGA,-0.0756
4,TATGCAGA,0.201
5,ACATAAAG,0.0797
6,AGCAGCCC,-0.23
7,GGGCTCTA,-0.0583
8,CCCATCGA,0.056
9,ACAGGTTC,-0.0525
10,CGATACCG,-0.131
11,AAGTAGGA,0.0206
12,ACTTGCTA,-0.0122
13,CGATATGA,0.0754
14,GTAAGTGA,0.131
15,AATTGCTA,-0.154
16,CTCCTCCC,-0.183
17,CCTTACGC,-0.117
18,ACCCCCGT,-0.271
19,CATATTAC,0.0585
20,AATTACTA,0.159
21,GCTGAAAC,0.13
22,AAGATACG,-0.0653
